Data as given in the antibiotic and cytotoxicity screens of Wong et al. (2023).
The other results are listed elsewhere or left out.

Tests used:
HSkMC = human skeletal muscle cells; test: cytotoxicity call (relative viability < 0.9); details: 10 µM
HepG2 = test: cytotoxicity call (relative viability < 0.9); details: 10 µM
S. aureus RN4220 = test: growth inhibition call (relative growth <= 0.2); details: 50 µM

Structure (SMILES)	cytotoxicity call (HSkMC)	cytotoxicity call (HepG2)	growth inhibition call (S. aureus RN4220)
C=CCOC[C@@H]1CN(C)Cc2nnn(C)c21	inactive	inactive	inactive
C[C@@H]1CN([C@H](C)CO)C(=O)Cc2cc(NC(=O)CCCN(C)C)ccc2O[C@H]1CN(C)S(=O)(=O)c1ccc(F)cc1	inactive	inactive	inactive
C[C@@H]1CN([C@@H](C)CO)C(=O)c2c(c3ccccc3n2C)-c2ccccc2CO[C@@H]1CN(C)C(=O)Nc1ccccc1C(F)(F)F	inactive	inactive	inactive
c1ccc(Oc2ccccc2)cc1	inactive	inactive	inactive
C[C@@H]1CN([C@@H](C)CO)C(=O)c2cc(Br)cnc2O[C@@H]1CN(C)Cc1ccc(C(=O)O)cc1	inactive	inactive	inactive
NC[C@@](O)(CS(=O)(=O)O)c1ccc(Cl)cc1	inactive	inactive	inactive
COCCNCc1ccc(-c2cc3nccc(Oc4ccc(NC(=O)C5(C(=O)Nc6ccc(F)cc6)CC5)cc4F)c3s2)nc1	active	active	inactive
Cc1noc(C)c1S(=O)(=O)Nc1ccc2c(c1)C(=O)N([C@@H](C)CO)C[C@H](C)[C@@H](CN(C)Cc1ccncc1)O2	inactive	inactive	inactive
CC[C@@H](N)c1ccc(C)cn1	inactive	inactive	inactive
C[C@H]1CN([C@@H](C)CO)C(=O)CCCn2nncc2CO[C@H]1CN(C)S(=O)(=O)c1cccc(C#N)c1	inactive	inactive	inactive
COc1cccc(S(=O)(=O)Nc2ccc3c(c2)C(=O)N(C)C[C@@H](OC)[C@@H](C)CN(C(=O)Cc2cccnc2)[C@H](C)CO3)c1	inactive	inactive	inactive
CN1C(C(=O)Nc2ccccn2)=C(O)c2ccccc2S1(=O)=O	inactive	inactive	inactive
C[C@@H]1CN([C@@H](C)CO)C(=O)Cc2cc(NC(=O)c3ccncc3)ccc2O[C@H]1CN(C)Cc1ccncc1	inactive	inactive	inactive
Cc1noc(C)c1S(=O)(=O)Nc1ccc2c(c1)C(=O)N([C@@H](C)CO)C[C@@H](C)[C@H](CN(C)C(=O)Nc1ccc(F)cc1)OCCCC[C@H](C)O2	inactive	inactive	inactive
Cc1ccc(S(=O)(=O)N(C)C[C@@H]2OCCCC[C@H](C)Oc3ccc(NC(=O)CCC(F)(F)F)cc3C(=O)N([C@@H](C)CO)C[C@H]2C)cc1	inactive	inactive	inactive
O=C(C[C@@H]1C[C@H]2c3cc(NS(=O)(=O)c4ccc(F)cc4)ccc3O[C@H]2[C@@H](CO)O1)NCCN1CCCCC1	inactive	inactive	inactive
C[C@@H]1CCCCO[C@@H](CN(C)S(=O)(=O)c2ccc(F)cc2)[C@H](C)CN([C@@H](C)CO)C(=O)c2cc(NS(=O)(=O)c3cn(C)cn3)ccc2O1	inactive	inactive	inactive
Cc1ccc(S(=O)(=O)Nc2ccc3c(c2)C(=O)N([C@H](C)CO)C[C@H](C)[C@@H](CN(C)S(=O)(=O)c2ccc(F)cc2)O3)cc1	inactive	inactive	inactive
C[C@H](CO)N1C[C@H](C)[C@H](CN(C)Cc2ccncc2)Oc2cc(C#CCN(C)C)ccc2S1(=O)=O	inactive	inactive	inactive
COc1cccc(S(=O)(=O)Nc2ccc3c(c2)[C@H]2C[C@H](CC(=O)NCCc4ccccc4)O[C@H](CO)[C@H]2O3)c1	inactive	inactive	inactive
C[C@H]1CN([C@@H](C)CO)C(=O)Cc2cc(NS(C)(=O)=O)ccc2O[C@@H]1CN(C)S(=O)(=O)c1ccccc1	inactive	inactive	inactive
C[C@H]1CCCCO[C@H](CN(C)Cc2ccc3c(c2)OCO3)[C@@H](C)CN([C@@H](C)CO)C(=O)c2cc(NC(=O)NC3CCCCC3)ccc2O1	inactive	inactive	inactive
CCCC(=O)Nc1ccc2c(c1)C(=O)N(C)C[C@@H](OC)[C@H](C)CN(S(=O)(=O)c1cn(C)cn1)[C@@H](C)CO2	inactive	inactive	inactive
C[C@@H]1CCCCO[C@H](CN(C)C(=O)C2CCCCC2)[C@@H](C)CN([C@H](C)CO)C(=O)c2cc(NC(=O)Nc3ccc(C(F)(F)F)cc3)ccc2O1	inactive	inactive	inactive
NC[C@H](c1ccccc1Cl)N1CCOCC1	inactive	inactive	inactive
CC(C)CC#Cc1ccc2c(c1)O[C@H](CN(C)S(=O)(=O)c1cccc(F)c1)[C@H](C)CN([C@@H](C)CO)S2(=O)=O	inactive	active	inactive
O=C(NC1CCCCC1)[C@@H]1C(c2ccc(Cl)cc2)=C(S(=O)(=O)c2ccccc2)C(=O)N1Cc1ccc(-c2ccccc2)cc1	inactive	inactive	inactive
C[C@@H]1CN([C@H](C)CO)C(=O)c2ccccc2-c2ccccc2CO[C@@H]1CN(C)Cc1ccc(-c2ccccc2)cc1	inactive	inactive	inactive
